# The supplement of paper PMC10369915
# Some of the results follow. Rule as the data show it: active = 3.2 or more and inactive = the rest. The signal is at background level for most entries.
# B1: STK3_HUMAN_81 (peptide)
# chain: MQQCDSPYVVKYYGS
# B2: STK4_HUMAN_433 (peptide)
# chain: KIPQDGDYEFLKSWT
# B3: SUCB1_HUMAN_84 (peptide)
# chain: AKSPDEAYAIAKKLG
# B4: B3AT_HUMAN_904 (peptide)
# chain: EEEGRDEYDEVAMPV
# B5: SYGP1_HUMAN_39 (peptide)
# chain: TQYVHSPYDRPGWNP
# B6: SYN1_HUMAN_312 (peptide)
# chain: EPFIDAKYDVRVQKI
# B7: SYTC_HUMAN_298 (peptide)
# chain: METLQRIYGISFPDP
# B8: SYUA_HUMAN_125 (peptide)
# chain: VDPDNEAYEMPSEEG
# B9: TAU_HUMAN_29 (peptide)
# chain: DRKDQGGYTMHQDQE
# B10: TAU_HUMAN_711 (peptide)
# chain: DHGAEIVYKSPVVSG
# B11: TB182_HUMAN_897 (peptide)
# chain: KRDSLGAYASQDANE
# B12: TBA1C_HUMAN_432 (peptide)
# chain: MAALEKDYEEVGADS
# B13: TCPA_HUMAN_181 (peptide)
# chain: DAVLAIKYTDIRGQP
# B14: TCPQ_HUMAN_30 (peptide)
# chain: SGLEEAVYRNIQACK
# B15: TEC_HUMAN_228_YA (peptide)
# chain: DKAGNEGYIPSNAVT
# B16: TERA_HUMAN_805 (peptide)
# chain: EDNDDDLYGGGGGGG
# B17: TGFBR2_HUMAN_284 (peptide)
# chain: KIFPYEEYASWKTEK
# B18: TGFBR2_HUMAN_284_YA (peptide)
# chain: KIFPAEEYASWKTEK
# How the values were obtained:
# Assay in all cases: enrichment score (SH2-bound / input frequency) (ratio); bacterial display of known human phosphotyrosine sites (pTyr-Var adds point mutants) read by sequencing; higher = stronger binding; tyrosines were phosphorylated by kinases first
# Settings in all cases: peptide library: Human pTyr
# SHP2 C-SH2 domain E139D = molecular target: SHP2 C-SH2 domain E139D
# [1] = molecular target: SHP2 C-SH2 domain wild-type
# SHP2 N-SH2 domain L43F = molecular target: SHP2 N-SH2 domain L43F
# SHP2 N-SH2 domain T42A = molecular target: SHP2 N-SH2 domain T42A
# SHP2 N-SH2 domain T52S = molecular target: SHP2 N-SH2 domain T52S
# [2] = molecular target: SHP2 N-SH2 domain wild-type
# 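Also: displayed peptides selected on beads carrying the immobilized SH2 domain, with library peptides lacking any tyrosine serving as negative controls.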
Binder,enrichment score (SHP2 C-SH2 domain E139D),enrichment score [1],enrichment score (SHP2 N-SH2 domain L43F),enrichment score (SHP2 N-SH2 domain T42A),enrichment score (SHP2 N-SH2 domain T52S),enrichment score [2]
B1,inactive: 1.24,inactive: 1.29,inactive: 1.24,inactive: 1.09,inactive: 1.31,inactive: 1.46
B2,inactive: 0.844,inactive: 0.673,inactive: 0.806,inactive: 0.85,inactive: 0.854,inactive: 0.836
B3,inactive: 1.09,inactive: 0.81,inactive: 0.792,inactive: 0.802,inactive: 0.885,inactive: 1.02
B4,inactive: 1.07,inactive: 0.88,inactive: 0.939,inactive: 1.06,inactive: 0.912,inactive: 1.08
B5,inactive: 0.928,inactive: 1.1,inactive: 0.456,inactive: 0.704,inactive: 0.361,inactive: 0.616
B6,inactive: 0.525,inactive: 0.499,inactive: 0.688,inactive: 0.518,inactive: 0.627,inactive: 0.635
B7,inactive: 0.865,inactive: 0.911,inactive: 0.851,inactive: 0.887,inactive: 0.846,inactive: 1.08
B8,inactive: 1.21,inactive: 0.976,inactive: 1.56,inactive: 1.27,inactive: 1.19,inactive: 1.59
B9,inactive: 0.845,inactive: 0.602,inactive: 0.874,inactive: 0.811,inactive: 0.659,inactive: 0.732
B10,inactive: 0.68,inactive: 0.594,inactive: 0.724,inactive: 0.671,inactive: 0.624,inactive: 0.636
B11,inactive: 0.692,inactive: 0.694,inactive: 0.612,inactive: 0.67,inactive: 0.732,inactive: 0.659
B12,inactive: 1.09,inactive: 1.12,inactive: 0.878,inactive: 1.05,inactive: 1.24,inactive: 0.794
B13,inactive: 2.07,active: 4.34,inactive: 0.883,inactive: 1.81,inactive: 0.97,inactive: 0.865
B14,inactive: 0.817,inactive: 0.723,inactive: 0.692,inactive: 0.684,inactive: 0.543,inactive: 0.771
B15,inactive: 0.549,inactive: 0.473,inactive: 0.658,inactive: 0.562,inactive: 0.634,inactive: 0.407
B16,inactive: 1.11,inactive: 0.821,inactive: 0.865,inactive: 0.949,inactive: 1.02,inactive: 0.777
B17,inactive: 1.1,inactive: 1.28,inactive: 0.9,inactive: 0.818,inactive: 1.37,inactive: 1.55
B18,inactive: 0.991,inactive: 0.98,inactive: 0.99,inactive: 1.05,inactive: 1.08,inactive: 0.697
